Results: the supplement of paper PMC9334596
Several values for one entry are separate records, joined by “and”; a condition that tells them apart may be missing. Equal values may be shown once. Over roughly 5,300 compounds, “PER2::LUC luminescence relative to vehicle control” has its median near 0.96; the highest 2% begin near 1.3. The list shows a part of the results.

System: mPer2Luc MEF
Assay: PER2::LUC luminescence relative to vehicle control (fold of vehicle); higher = higher PER2::LUC reporter signal
Settings: 10 µM
Procedure, shortened: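 Mouse embryonic fibroblasts carrying the mPer2Luc reporter were seeded at ~3000 cells per well in 384-well plates, 48 h before compounds from commercial libraries were added at 10 μM. Cells were grown in DMEM with 10% FBS at 37 °C and 5% CO2. Luminescence was read with the ONE-Glo luciferase assay system 24 h and 30 h after treatment, followed by an alamarBlue viability assay. The value is PER2::LUC luminescence as fold of vehicle control.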

SMILES | PER2::LUC luminescence (time after treatment 24 h) | PER2::LUC luminescence (time after treatment 30 h)
C1COC(NC(C2CC2)C2CC2)=N1 | 0.931 | 1
COc1cc(OC2CCN(C)CC2)ccc1Nc1ncc2c(n1)n(C1CCCC1)c(=O)n2C | 0.99 | 0.927
C#CCN[C@@H]1CCc2ccccc21 | 1.03 and 0.84 | 0.995 and 0.732
Cn1c(=O)[nH]c2ncn(C)c2c1=O | 1.06 and 1.11 | 0.947 and 0.808
C/C1=C2N=C(/C=C3N=C(/C(C)=C4\[N-]C(C(CC(N)=O)C4(C)CCC(=O)NCC(C)OP(=O)([O-])OC4C(CO)OC(n5cnc6cc(C)c(C)cc65)C4O)C4(C)N=C1C(CCC(N)=O)C4(C)CC(N)=O)C(CCC(N)=O)C\3(C)C)C(CCC(N)=O)C/2(C)CC(N)=O.[CH3-].[Co+3] (stereo not drawn) | 1.07 | 1.03
O=C1OC(C=Cc2ccccc2)=NC1=Cc1cccnc1 | 1.03 | 1.05
C=CCSSSCC=C | 1.32 | 1.05
COc1ccc2c(c1)OCC(Cc1ccc(OC)c(O)c1)C2=O (stereo not drawn) | 0.459 | 0.501
COc1ccc(NS(=O)(=O)c2sc3ccc(Cl)cc3c2C)cc1N1CCNCC1 | 0.605 and 0.615 | 0.674 and 0.614
Cc1cc(C(C)(C)C)c(O)c(C(C)(C)C)c1 | 1.16 and 1.18 | 0.828 and 1.01
COc1ccc(-c2cc(=S)ss2)cc1 | 1.31 | 1.16
O=C(O)c1cn(C2CC2)c2cc(N3CCNCC3)c(F)cc2c1=O | 1.06 and 0.782 | 1.19 and 0.813
CCCn1c(=O)[nH]c(=O)c2[nH]cnc21 | 0.891 | 1.03
O[C@H]1CCN2Cc3ccccc3N=C12 | 0.987 | 0.932
C[N+](C)(C)CC=O | 0.974 | 0.958
CCOc1nc2cccc(C(=O)OCc3oc(=O)oc3C)c2n1Cc1ccc(-c2ccccc2-c2noc(=O)[nH]2)cc1 | 0.983 and 1.05 | 1.16 and 1.07
COc1ccc(/C=C/C(=O)c2ccc(O)cc2O)cc1 | 1.51 | 1.56
OC[C@H]1O[C@@H](n2cnc3c(NC4CCCC4)ncnc32)[C@H](O)[C@@H]1O | 0.965 | 0.991
CN1CC(=O)N2[C@H](c3ccc4c(c3)OCO4)c3[nH]c4ccccc4c3C[C@@H]2C1=O | 0.925 and 0.773 | 0.883 and 1.02
C1CCC(C(CC2CCCCN2)C2CCCCC2)CC1 (stereo not drawn) | 0.213 | 0.32
CCC/C=C\C=C/C(=O)N[C@@H](CC(N)=O)C(=O)NC(CC(N)=O)C(=O)N[C@@H](C(=O)N[C@H](CCCN)C(=O)N[C@@H](C(=O)N[C@@H](C(=O)N[C@@H](C(=O)N[C@H](C(=O)N[C@@H](Cc1ccccc1)C(=O)N[C@H](CCCN)C(=O)NC(C(=O)N[C@H](C(=O)NC(C(=O)NCC(=O)N[C@@H](CC(C)C)C(=O)N[C@H](C)C(=O)NC(C(=O)O)C1CCC(O)C(Cl)C1)C1CCC(O)CC1)[C@H](C)O)C1CCC(O)CC1)[C@H](C)O)C1CCC(O)CC1)C1CCC(O)CC1)[C@H](C)O)C1CCC(O)CC1 (stereo partly drawn) | 0.82 | 0.849

SMILES | PER2::LUC luminescence (time after treatment 24 h) | PER2::LUC luminescence (time after treatment 30 h)
CCN(C(=O)c1c(O)c2c(Cl)cccc2n(C)c1=O)c1ccccc1 | 1.13 | 1.04
Cc1c(C(=O)NN2CCCCC2)nn(-c2ccc(Cl)cc2Cl)c1-c1ccc(I)cc1 | 0.927 | 0.937
CCc1nc(N)nc(N)c1-c1ccc(Cl)cc1 | 0.455 | 0.493
CC(=O)[C@@]1(O)CC[C@H]2[C@@H]3C[C@H](C)C4=CC(=O)C=C[C@]4(C)[C@@]3(F)[C@@H](O)C[C@@]21C | 0.814 | 1.05
CC(C)NCC(O)COc1ccc(CCOCC2CC2)cc1 (stereo not drawn) | 1.11 and 0.927 | 1.2 and 0.945
CC(C)(OCc1nn(Cc2ccccc2)c2ccccc12)C(=O)O | 1.1 | 1.03
Cc1ccc(S(=O)(=O)N[C@@H](Cc2ccccc2)C(=O)CCl)cc1 | 0.449 | 0.743
COc1cc(C(=O)NCc2ccc(OCCN(C)C)cc2)cc(OC)c1OC | 0.611 | 0.898
CCCN1CCCC[C@H]1C(=O)Nc1c(C)cccc1C | 1.14 | 1.1
C[Si](C)(C)CCOCn1ccc2c(-c3cn[nH]c3)ncnc21 | 1.11 | 1.03
O=C(O)C1CC([C@@H]2CCCCN2)CN2CCCCC12 (stereo partly drawn) | 0.909 | 0.987
Nc1n[n+]([O-])c2ccccc2[n+]1[O-] | 1.36 | 1.15
COc1cccc2oc(-c3ccccc3)cc(=O)c12 | 1.41 | 1.43
C[C@@H]1CC[C@H]2[C@](C)(CO)[C@@H](O)CC[C@]2(C)[C@@]12CC[C@@](CO)(CCO)O2 | 1.09 and 0.993 | 1.04 and 0.968
CC(NC(=O)c1ccccc1/N=C/c1c(O)ccc2ccccc12)c1ccccc1 (stereo not drawn) | 0.983 | 0.907
Cc1cccc(-c2[nH]c(C(C)(C)C)nc2-c2ccc3c(c2)OCO3)n1 | 0.603 | 0.631
NC1CCN(c2cccc(Cl)n2)CC1 | 0.875 and 0.913 | 0.872 and 0.809
O=C(O)CNC(=O)C(CS)Cc1ccccc1 (racemic) | 0.927 | 1.19
Clc1ccc(C(Cn2ccnc2)OCc2ccsc2Cl)c(Cl)c1 (stereo not drawn) | 0.634 and 0.877 | 1.24 and 0.92
COc1cc(C(=O)N2CCC(N3CCN(C)CC3)CC2)ccc1Nc1ncc2c(n1)N(C)c1ccccc1C(=O)N2C | 0.091 | 0.094
NC(=O)CCC(N)C(=O)O (racemic) | 0.886 | 1.24

SMILES | PER2::LUC luminescence (time after treatment 24 h) | PER2::LUC luminescence (time after treatment 30 h)
COC(=O)/C=C/c1cccc(N(Cc2ccc(-c3ccc(N(C)C)cc3)cc2)C(=O)C2CCCCC2)c1 | 0.953 | 1.02
C[C@](N)(Cc1ccc(O)c(O)c1)C(=O)O | 0.957 and 0.877 | 0.887 and 0.918
c1cnc(N2CCN(Cc3ccc4c(c3)OCO4)CC2)nc1 | 1.01 and 0.951 and 0.809 | 0.922 and 0.907 and 0.9
CC(C)=CCC[C@](C)(O)[C@H]1CC[C@]2(C)[C@@H]1[C@H](O)C[C@@H]1[C@@]3(C)CC[C@H](O)C(C)(C)[C@@H]3CC[C@]12C | 1.08 | 0.968
COc1nc2ccc(Br)cc2cc1[C@@H](c1ccccc1)[C@@](O)(CCN(C)C)c1cccc2ccccc12 | 1.05 and 1.01 and 1.17 | 1.09 and 1.05 and 1.01
Cc1c(C(=O)NN2CCCCC2)nn(-c2ccc(Cl)cc2Cl)c1-c1ccc(Cl)cc1 | 0.975 and 1.11 | 1.05 and 0.877
O=C1/C(=C/c2cccs2)CCC/C1=C\c1cccs1 | 1.5 | 1.67
C[C@H]1c2cccc(O)c2C(=O)C2=C(O)[C@]3(O)C(=O)C(C(N)=O)=C(O)[C@@H](N(C)C)[C@@H]3[C@@H](O)[C@@H]21 | 0.604 | 0.779
C=CC(C1=CC(=O)C(OC)=CC1=O)c1ccccc1 (stereo not drawn) | 1.06 | 1.09
COc1cc2c(cc1OC)CC(=O)N(CCCN(C)C[C@H]1Cc3cc(OC)c(OC)cc31)CC2 | 0.894 | 0.911
CC(C)C(=O)Oc1ccc(CO)cc1[C@H](CCN(C(C)C)C(C)C)c1ccccc1 | 0.904 | 0.896
Oc1cc2c(c(Cl)c1O)CCNCC2c1ccccc1 (racemic) | 0.825 | 0.864
Cc1nn(-c2ccccc2)c(C)c1C=NN1CCN(Cc2ccccc2)CC1 | 1.03 | 0.953
Cc1ccc(NC(=O)c2ccc(CN3CCN(C)CC3)cc2)cc1Nc1nccc(-c2cccnc2)n1 | 0.753 and 0.642 | 0.854 and 0.835
O=C(O)C(=O)O.[NH-][C@@H]1CCCC[C@H]1[NH-].[Pt+2] | 1.16 | 0.987
CCOC(=O)COc1ccc2c(=O)cc(-c3ccccc3)oc2c1 | 1.06 | 1.08
CCCCCCCCCCCCCC[C@@H](O)[C@@H](O)[C@@H](N)CO | 1.16 | 1.05
O=C(NCC1(c2nc(-c3ccccc3)cs2)CCOCC1)c1cccc(-c2noc(C(F)(F)F)n2)c1 | 0.923 | 0.884
COc1c(CC(=O)c2cc3c(cc2O)OC(C)(C)C(O)C3)ccc2c1C=CC(C)(C)O2 (stereo not drawn) | 0.181 | 0.237
CCc1cc2c(cc1N1CCC(N3CCOCC3)CC1)C(C)(C)c1[nH]c3cc(C#N)ccc3c1C2=O | 0.77 | 0.795
CCOC(=O)O[C@]1(C(=O)OCCl)CC[C@H]2[C@@H]3CCC4=CC(=O)C=C[C@]4(C)[C@H]3[C@@H](O)C[C@@]21C | 0.768 | 1.11

SMILES | PER2::LUC luminescence (time after treatment 24 h) | PER2::LUC luminescence (time after treatment 30 h)
Fc1ccc(CN(C2=NCCN2)c2c(Cl)cccc2Cl)cc1 | 0.85 | 0.85
Cc1cc(O)cc(C)c1Cl | 1.03 and 0.695 | 1.07 and 0.977
CC(=O)N(c1onc(C)c1C)S(=O)(=O)c1ccc(N)cc1 | 1.04 | 1.04
Cc1cn(-c2cc(NC(=O)c3ccc(C)c(Nc4nccc(-c5cccnc5)n4)c3)cc(C(F)(F)F)c2)cn1 | 0.696 | 0.803
Oc1cccc(O)c1 | 1.08 and 0.869 | 0.94 and 0.83
C[C@@H](O[C@H]1OCCN(Cc2n[nH]c(=O)[nH]2)[C@H]1c1ccc(F)cc1)c1cc(C(F)(F)F)cc(C(F)(F)F)c1 | 0.807 | 0.805
Clc1ccccc1CNCC1CCC(CNCc2ccccc2Cl)CC1 (stereo not drawn) | 1.05 | 0.974
C=C1CCC(C2CC(=O)OC2=O)C(=O)CCC2C1CC2(C)C (stereo not drawn) | 1.01 | 1.04
O=C(O)c1cc(=O)c2c(Cl)cc(Cl)cc2[nH]1 | 1.04 | 1
CCCNC(=O)Nc1ccc(Oc2ncnc3cc(OC)c(OC)cc23)cc1Cl | 0.857 | 0.803
CC(=O)c1c(C)c2cnc(Nc3ccc(N4CCNCC4)cn3)nc2n(C2CCCC2)c1=O | 0.613 and 0.634 | 0.89 and 0.451
CCN1C[C@H](C)n2c(c(O)c3c(=O)n(Cc4ccc(F)c(Cl)c4)nc(C(=O)NC)c32)C1=O | 1.29 | 1.16
COc1ccc2cc(C(C)C(=O)Oc3ccc(C(N)=S)cc3)ccc2c1 (stereo not drawn) | 1.11 | 0.978
O=Nc1ccc2oc(=O)ccc2c1 | 0.874 | 0.993
N#CCC(=O)NN | 1.01 and 0.791 | 0.944 and 0.993
CN1CCCN=C1/C=C/c1cccc(O)c1 | 1.11 | 0.993
CC(N)CCCC(C)(C)O (stereo not drawn) | 1.09 | 1.09
CCCCC[C@H](O)/C=C/[C@@H]1[C@H]2C/C(=C/CCCC(=O)O)C[C@H]2C[C@H]1O | 1.01 | 0.947
COc1nccnc1NS(=O)(=O)c1ccc(N)cc1 | 1 | 1.97
CNC(=O)c1ccc(Nc2ncc(C(F)(F)F)c(NCc3nccnc3N(C)S(C)(=O)=O)n2)cc1 | 0.644 | 0.601
CCOC(=O)[C@@H](N)CCC(=O)N[C@@H](CSCc1ccccc1)C(=O)N[C@@H](C(=O)OCC)c1ccccc1 | 1.02 | 0.981
